Assay results published in the RNAGym collection of RNA variant scans (doi:10.7554/elife.90254).
The source gives no read counts; variants with many changes may rest on few reads.

B1: LINE1-mini (parent)
chain: GGCAGAGCUCAACACAGCGUGGCAAAGUGGCUGUGGCUAGACUGCC

Variants of: B1
Assay: self-cleavage, relative activity (ratio to wild type); higher = more cleavage; in vitro, sequencing; the parent is a self-cleaving ribozyme

Q: For GGCAGAGGUCAACACAGCGUCGCAAAGUGGCUGUAGCUUGACUGCC [C8G G21C G35A A39U], which self-cleavage is on record?
A: 0.04

Q: With GCCCGAGCUCAACACAGCGUGGCAAAGCGGCUGUGGCUAGUCUGCC [G2C A4C U28C A41U] as the variant, how does the self-cleavage read?
A: 0.08

Q: For CGAAGAGGUCAAGACAUCGUGGCAAAGUGGCUGUGGCUUGACUGCC [G1C C3A C8G C13G G17U A39U], which self-cleavage is on record?
A: 0.02

Q: Which self-cleavage does the source give for GGCAGAGCGCCACACAGCGAGGCAAAGUGGUUGUGGCUAGACUGCC [U9G A11C U20A C31U] here?
A: 0.01

Q: For GGCAGAGCUCUACACAGCGUGGGAAAGUGGCUGUGGCCAGACUGCC [A11U C23G U38C], which self-cleavage is on record?
A: 0.19

Q: With GGCAGAGCACCACACAGCGUGGCAAAGUGUCUGUGGCUAGACAGCC [U9A A11C G30U U43A] as the variant, how does the self-cleavage read?
A: 0.01

Q: Which self-cleavage does the source give for GGCACAGCUCAACACAGCGUGUCAAAGUGGCUGUGGCUAGAUUGCC [G5C G22U C42U] here?
A: 0.01

Q: For GGUAGAGCUCAACACAGCGAGGCAAAGGGGCUGUGGCUAGACUGAC [C3U U20A U28G C45A], which self-cleavage is on record?
A: 0.04

Q: With GUCAGAGCUCAACACAGCGUGGCGAAGUGGGUGUGGCUAGACUGCC [G2U A24G C31G] as the variant, how does the self-cleavage read?
A: 0.03

Q: For GGAAGAGCUCAAAACAGCGUGGCAAAGUGGCUGUGGCUAGACCGCC [C3A C13A U43C], which self-cleavage is on record?
A: 0.97

Q: Which self-cleavage does the source give for GGCAAAGCUCAACACAGCGUGGCAAGGUAGCUGUGGCUAAACUGCC [G5A A26G G29A G40A] here?
A: 0.1

Q: With GGCAGAGCUCAACACAGCGUGGCAAAGGGGCUGUGGCAAGGCUGCC [U28G U38A A41G] as the variant, how does the self-cleavage read?
A: 0.03

Q: With GGACGGGCACAACACAGAGUGGCAAAGUGGCUGUGGCUAGCCUGCC [C3A A4C A6G U9A C18A A41C] as the variant, how does the self-cleavage read?
A: 0.05

Q: With GGCAGAGCUCAACAAAGCGUGGCUAAGUGGCUGUGGUUAGACUGCC [C15A A24U C37U] as the variant, how does the self-cleavage read?
A: 0.03

Q: For GGCAGAGCUCAACACAGCGGGCCAAAGUGGCUGUGGCUGGACUGCC [U20G G22C A39G], which self-cleavage is on record?
A: 0.03

Q: Which self-cleavage does the source give for GGCAGACCUAAACACAUCGUGGCAAAGUGGCUUUGGCUAGACUGCC [G7C C10A G17U G33U] here?
A: 0.04

Q: For GGCUGAGGGCAACACAGCGUGGCAAAGUGGCUGUGGCUAGACUGCC [A4U C8G U9G], which self-cleavage is on record?
A: 0.05

Q: Which self-cleavage does the source give for GGCAGAGCUCCACACAGCGUGGCAAAGUGUCUGUGGCUUGACUUCC [A11C G30U A39U G44U] here?
A: 0

Q: For GGCAGAGCUCAACACAGCGUGGUAAAGUGGCUGUGGAUGGACUGCC [C23U C37A A39G], which self-cleavage is on record?
A: 0.01

Q: For GGCAGAGCUCAACACAGCGUGGCACAGUGGCUGUGCCUAGACUACC [A25C G36C G44A], which self-cleavage is on record?
A: 0.03

Q: For GGCAGAGCUCAACACAGCGUGGCAAAGUGCUUGUGGCUCGACUGCC [G30C C31U A39C], which self-cleavage is on record?
A: 0.06

Q: With GGCAGAGUUCAACAGAGCGUGGCAAAGUGGCUAUGGCUAGACUGCC [C8U C15G G33A] as the variant, how does the self-cleavage read?
A: 0.07

Q: With CGCAGAGCUCAACACAGUGUGGCAAAGUGGGUGUGGCUAGACUGCC [G1C C18U C31G] as the variant, how does the self-cleavage read?
A: 0

Q: For GGCAUAGCUCAACACAGAGUGGCAAAGUGGUCGUGGCUAGACUGCC [G5U C18A C31U U32C], which self-cleavage is on record?
A: 0.02

Q: For GGCAGAGCUCAACACAGCGUGGCUAAAUGGCUGGGGCUAGACUGCC [A24U G27A U34G], which self-cleavage is on record?
A: 0.34

Q: Which self-cleavage does the source give for AGCAGAGCUCAAAACAUCGUGGCAAAGUGGCUGUGGCUAGACGGCA [G1A C13A G17U U43G C46A] here?
A: 0.05

Q: Which self-cleavage does the source give for GGCAUAGCGCAACACAGCGUGGCAAAGUGGCUGAUGCUAGACUGCC [G5U U9G U34A G35U] here?
A: 0.14

Q: Which self-cleavage does the source give for GGCAGAGCUGAACACAGCGCGGCAAAGUGGCAGGGGCUAGACUGCC [C10G U20C U32A U34G] here?
A: 0.01

Q: With GGCAGAGCUCGACACAGAGUGGCAAAGUGGGUGUGGCUCGAAUGCC [A11G C18A C31G A39C C42A] as the variant, how does the self-cleavage read?
A: 0

Q: With GGCAGAAAUCAACAAAGCGUGGCAAAGUGGCUGUGGCAAGACUGCC [G7A C8A C15A U38A] as the variant, how does the self-cleavage read?
A: 0.25

Q: Which self-cleavage does the source give for GGCAGGGCACAAUACAGCGUGGCAAAGUGGCUGUGGCUAGACUGGC [A6G U9A C13U C45G] here?
A: 0.19

Q: With GGCGGAGCUCAACACAGCGUGGCAAAGUGGCCGUGGCUAUACUGCC [A4G U32C G40U] as the variant, how does the self-cleavage read?
A: 0

Q: Which self-cleavage does the source give for GGCAGAGCUCAAGACAGCGUGGCAAUGUCGCUGUGGCUACACUGCC [C13G A26U G29C G40C] here?
A: 0.02

Q: Which self-cleavage does the source give for GGGAGAGCUCAACACAGCGUGGCAAAAUGGCUGUGGCAAGACUGCC [C3G G27A U38A] here?
A: 0.56

Q: For CGCAGAGUACAACACAGCGUGGCAAAGUGGCUGUGGCUAGACUGCC [G1C C8U U9A], which self-cleavage is on record?
A: 0.04

Q: Which self-cleavage does the source give for GGCAGAGCUCAACACAGCGGGGCAAAGAGGCUGUGGCUAGACUUCC [U20G U28A G44U] here?
A: 0.15

Q: With GGCAGAGCUAAACACAGCGUUGCAAAGUGUCUGUGGCUAGACUGCC [C10A G21U G30U] as the variant, how does the self-cleavage read?
A: 0.02

Q: Which self-cleavage does the source give for GGCAGAGCCCAACACAGCGUGGCAAAGUGGCUCUGGCAAGACUGCC [U9C G33C U38A] here?
A: 0.04

Q: With GGCAGAGGUCAACACAGCGUGGCUAACUGGCUGUGGCUAGACUGCC [C8G A24U G27C] as the variant, how does the self-cleavage read?
A: 0.09

Q: With GGUAGAUCAUAACACAGCGUAGCAAAGUGGCUGUGACUAGACUGCC [C3U G7U U9A C10U G21A G36A] as the variant, how does the self-cleavage read?
A: 0.25

Q: For GGCAGAGGGCAACACAGCGUGGCAAAGUGGCUGUGAGUAGACUGCG [C8G U9G G36A C37G C46G], which self-cleavage is on record?
A: 0.07

Q: With GGCAGAACUCAGCACAGCGUUGCUAAGUGGCUGUGGCUAGACUGCC [G7A A12G G21U A24U] as the variant, how does the self-cleavage read?
A: 0.1

Q: With GGCAGAGCUCAACCCAGCGUGACAAAGUGGCUGUGGCGAGACUGCC [A14C G22A U38G] as the variant, how does the self-cleavage read?
A: 0.01

Q: For GGCAAAGCUCACCACAACGUGGCAAAGAAGCUGUGGCUAUACUGCA [G5A A12C G17A U28A G29A G40U C46A], which self-cleavage is on record?
A: 0.03

Q: With GACAGAGCUUAACACAGCGUGGCAAAGUGGCUGUAGCUAGGCUGCC [G2A C10U G35A A41G] as the variant, how does the self-cleavage read?
A: 0.09

Q: For GGCAGAGAUCAACACAGCGUGGCAAAGUUGCGGUGGCUAGACUGCC [C8A G29U U32G], which self-cleavage is on record?
A: 0.96

Q: For GUCAGCGCUCGACACAGCGUGGCAAAGUGGCUGUGGCUAGACUGCC [G2U A6C A11G], which self-cleavage is on record?
A: 0.04

Q: For GGCAAAGCUCAACACAGCGUGGCAAAGUGGCUGUGCCUGGACUGCC [G5A G36C A39G], which self-cleavage is on record?
A: 0.01

Q: Which self-cleavage does the source give for GUCAGAGCUCAACACAGAGUGGCUAAGUGGCUGUGGCUAGACUGCC [G2U C18A A24U] here?
A: 0.01

Q: For GGCAGAGCUCAACAUAGCGUAGCAAAGUGGCUGUGGCUUGACUGCC [C15U G21A A39U], which self-cleavage is on record?
A: 1.05

Q: For GGCAGAGCUAAACACAGCGUGGCAACGUGGCUGUGGAUAGACUGCC [C10A A26C C37A], which self-cleavage is on record?
A: 0.04

Q: For GGCAGAAUUCAACACAGCGUGGCAAAGGGGCUGUGGCUAGACUGCC [G7A C8U U28G], which self-cleavage is on record?
A: 0.99

Q: With GGCAGAUCUCAACACAGCGUGGCAACUUGGCGGUGGCUAGACUGCC [G7U A26C G27U U32G] as the variant, how does the self-cleavage read?
A: 0.17

Q: With GGCAGAGCUCAUCACAGCGUGGCAGAGUGGCUGUGGUUAGACUGCC [A12U A25G C37U] as the variant, how does the self-cleavage read?
A: 0

Q: Which self-cleavage does the source give for GACACAGCUCAACACAGCGUGGCAAACUGGCUGUGGCGAGGCUGCC [G2A G5C G27C U38G A41G] here?
A: 0.03

Q: With GGCCGAGCUCAACACAGCGUGGCAAAUUGGCUGUGGCUAGACUGCA [A4C G27U C46A] as the variant, how does the self-cleavage read?
A: 0.12
